Hit rate of the full screen: of about 310,000 compounds, about 2,200 (0.71%) showed an effect of 50% or more. The effect is printed as a negative number. Some of the results follow.
target: human ether-à-go-go-related gene (hERG) potassium channel (human, UniProt Q12809); assay: primary screen, population patch clamp on CHO cells stably expressing hERG
Sequence (Q12809 whole entry, looked up): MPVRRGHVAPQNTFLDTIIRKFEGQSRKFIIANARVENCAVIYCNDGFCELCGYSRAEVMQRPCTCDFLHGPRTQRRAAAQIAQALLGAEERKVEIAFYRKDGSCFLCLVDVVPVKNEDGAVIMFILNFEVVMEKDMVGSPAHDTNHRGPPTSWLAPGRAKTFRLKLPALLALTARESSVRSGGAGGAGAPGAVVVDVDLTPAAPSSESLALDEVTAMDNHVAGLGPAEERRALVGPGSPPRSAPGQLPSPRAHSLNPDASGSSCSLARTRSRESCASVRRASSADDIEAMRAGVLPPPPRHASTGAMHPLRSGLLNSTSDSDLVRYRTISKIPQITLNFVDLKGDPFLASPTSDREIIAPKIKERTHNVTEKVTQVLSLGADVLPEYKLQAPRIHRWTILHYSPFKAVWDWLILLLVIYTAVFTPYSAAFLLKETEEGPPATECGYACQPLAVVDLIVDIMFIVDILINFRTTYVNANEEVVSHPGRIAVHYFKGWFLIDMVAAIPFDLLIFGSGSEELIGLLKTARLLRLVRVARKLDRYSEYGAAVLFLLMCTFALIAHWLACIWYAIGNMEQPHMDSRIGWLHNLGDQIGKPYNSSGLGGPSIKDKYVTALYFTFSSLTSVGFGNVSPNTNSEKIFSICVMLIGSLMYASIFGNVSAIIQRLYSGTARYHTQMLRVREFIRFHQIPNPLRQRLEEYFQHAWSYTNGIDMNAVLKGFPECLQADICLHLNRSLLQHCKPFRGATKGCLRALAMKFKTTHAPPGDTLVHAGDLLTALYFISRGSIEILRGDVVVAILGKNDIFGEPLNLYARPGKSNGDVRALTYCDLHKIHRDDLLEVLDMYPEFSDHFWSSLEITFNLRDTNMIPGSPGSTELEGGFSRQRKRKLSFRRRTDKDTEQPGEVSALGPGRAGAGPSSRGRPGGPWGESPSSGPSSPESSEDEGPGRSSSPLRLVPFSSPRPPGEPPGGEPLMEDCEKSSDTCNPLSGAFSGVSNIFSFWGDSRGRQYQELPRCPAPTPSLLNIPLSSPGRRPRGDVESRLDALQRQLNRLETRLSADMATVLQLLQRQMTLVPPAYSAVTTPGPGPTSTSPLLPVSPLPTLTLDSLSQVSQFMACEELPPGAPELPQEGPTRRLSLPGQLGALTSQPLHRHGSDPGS

| SMILES | hERG current change (%, negative = inhibition) at 1uM [%] |
| --- | --- |
| Nc1nnc(CC(=O)N/N=C/c2ccc([N+](=O)[O-])cc2)s1 | 10.4 |
| CC12CCC(C(=O)Nc3c(Cl)cccc3Cl)(C(Br)C1=O)C2(C)C (stereo not drawn) | 2.92 |
| COc1ccc(C(C)=O)cc1CSc1nc2cc(C(=O)O)ccc2c(=O)n1Cc1ccccc1 | 10.9 |
| Cc1cc(C)nc(N2N=C(C(F)(F)F)CC2=O)n1 | 10 |
| Cc1cc(-c2ccccc2)c2c3c(c(-c4ccccc4)n2n1)c(=O)n(C)c(=O)n3C | 6.03 |
| CCc1ccc2[nH]c(=O)c(-c3ccccc3)c(O)c2c1 | 18 |
| CCC1=C/C(=C\c2ccc3c(c2)OCO3)C(=O)S1 | 12.5 |
| Cn1cc(/C=N/NC(=O)c2cccc([N+](=O)[O-])c2)c2ccccc21 | 22.9 |
| CC(C)CCN(C(=O)c1csnn1)C(C(=O)NC1CCCC1)c1ccc(F)cc1 (stereo not drawn) | 5.88 |
| Cc1ccc(NC(=O)CNC(=O)c2cccc(Cl)c2)nc1 | 8.09 |
| Cc1c(C(=O)O)oc2c3c(ccc12)OCCO3 | 9.29 |
| COC(=O)COc1c(Cl)cc(C(c2c(C)[nH][nH]c2=O)c2c(C)[nH][nH]c2=O)cc1OC | 11.4 |
| CC(C)CC(=O)Nc1ccc(-c2nc3ccccc3c(=O)[nH]2)cc1 | 11.8 |
| O=C1C=C(NCc2ccc(Cl)cc2)CC(c2ccco2)C1 (stereo not drawn) | -91.3 |
| CCOc1ccc(/C=C2\SC(=S)N(NS(=O)(=O)c3ccc(C)cc3)C2=O)cc1OC | 11.3 |
| CSc1ccccc1C(=O)NCCSc1ccc(C)cc1 | 6.56 |
| CC(C(=O)O)N1C(=O)/C(=C/c2cccn2C)SC1=S (stereo not drawn) | 2.92 |
| CC(=O)NC1CCN(CC(=O)Nc2cccc([N+](=O)[O-])c2)CC1 | 1.66 |
| CC1CC(C)CN(S(=O)(=O)c2ccc(C(=O)Nc3nnc(-c4cccs4)o3)cc2)C1 (stereo not drawn) | 5.29 |
| O=C(c1cccc(C(F)(F)F)c1)N1CCC(O)(CS(=O)(=O)Cc2ccccc2Cl)CC1 | 7.38 |
| CCc1cccc2sc(N(CCCN3CCOCC3)C(=O)CS(=O)(=O)c3ccccc3)nc12.Cl | 3.41 |
| COc1cc(Cl)c(CC(=O)c2c[nH]c3ccccc23)cc1OC | 15.3 |

| SMILES | hERG current change (%, negative = inhibition) at 1uM [%] |
| --- | --- |
| Cc1nc2c(C(=O)NCc3ccccc3)c[nH]n2c(=O)c1Cl | 20.4 |
| COc1ccccc1C(=O)NC(=O)COC(=O)c1ccc(Cl)cc1[N+](=O)[O-] | 17.2 |
| COc1ccc(NC(=O)CSc2nnc(Cc3cccn3C)n2-c2ccc(F)cc2)cc1OC | 10.6 |
| COc1cc(O)cc2occ(-c3ccc(O)cc3)c(=O)c12 | -4.79 |
| CC(C)(C)OC(=O)N1CCC(c2c(C(=O)N3CCN(C4CCCCC4)CC3)cnn2-c2ccc(F)cc2)CC1 | -26.1 |
| O=C1NCCN1CCNS(=O)(=O)c1ccccc1[N+](=O)[O-] | 13.8 |
| CC(C)CC1(C(=O)NCCN2CCOCC2)C=CCN1C(=O)c1ccccc1 (stereo not drawn) | 15.2 |
| c1ccc(-c2nnc(OCc3cccnc3)c3ccccc23)cc1 | -9.76 |
| CC(CC(=O)NNC(=O)c1ccncc1)c1ccccc1 (stereo not drawn) | 15.6 |
| Cc1cc(C)n(-c2nnc(NCc3ccc(Cl)cc3)nn2)n1 | 6.73 |
| COc1ccc(OCC(=O)Nc2ccccc2OC(F)F)cc1 | -5.46 |
| CCN=C(Nc1ccc(Cl)cc1)c1cccnc1 | -3.37 |
| O=[N+]([O-])c1ccc(SCc2c(F)cccc2Cl)nc1 | 10.5 |
| Cc1cc(C)nc(/N=C2\NC(=O)CC(C(=O)O)N2c2ccc(Cl)cc2Cl)n1 (stereo not drawn) | 2.9 |
| CNc1oc(-c2ccc(OCc3ccccc3)cc2)nc1C#N | 12.5 |
| Cc1cc(C)n(-c2nc3ccccc3nc2N2CCN(C(=O)c3ccccc3)CC2)n1 | -2.11 |
| O=[N+]([O-])c1ccc(-c2cn3c(n2)SCC3)cc1 | 1.97 |
| CC1CCC(NC(=O)CN(C)S(=O)(=O)c2cnc[nH]2)CC1 (stereo not drawn) | 9.37 |
| Cc1cc(C)c(S(=O)(=O)N2CCCCC2)c(C)c1N(C)S(=O)(=O)c1ccccc1 | 9.46 |
| COCCn1c(C)cc(C(=O)COC(=O)CNC(=O)c2ccccc2)c1C | 11.2 |
| COc1ccc(-c2nnc(NC(=O)C(C)C)s2)c(OC)c1 | 13.3 |
| COc1cc(NC(=O)C2CC(c3cccc(Br)c3)=NO2)cc(OC)c1OC (stereo not drawn) | 1.07 |

| SMILES | hERG current change (%, negative = inhibition) at 1uM [%] |
| --- | --- |
| Cc1ccc(CNC(=O)CCCn2nc(C)n3ccnc3c2=O)cc1 | 15.1 |
| CCCCC(=O)/C=C/n1c(=S)oc2ccccc21 | 19.7 |
| CC(Sc1ccccc1)C(=O)N1CCN(S(=O)(=O)c2ccccc2C(F)(F)F)CC1 (stereo not drawn) | -1.7 |
| COc1cccc(NC(=O)c2ccc(S(=O)(=O)N3CCCC3)cc2)c1 | 9.94 |
| Cc1nc(-c2ccc(C(=O)Nc3cc(S(N)(=O)=O)ccc3C)cc2)cs1 | 9.34 |
| COc1ccc(CN2CCN(C(C)C)C(CCO)C2)cc1Cn1cncn1 (stereo not drawn) | 13.8 |
| Cc1cccc(OCCOC(=O)c2c(-c3ccccc3)noc2C)c1 | 8.36 |
| Nc1nc(-c2nc3ccccc3[nH]2)cs1 | 8.22 |
| Cc1cccc2cc(CN(Cc3cccs3)C3(c4nnnn4C4CCCC4)CCCC3)c(=O)[nH]c12 | -1.01 |
| Cc1c(N=Cc2cccs2)c(=O)n(-c2ccccc2)n1C | 16.5 |
| O=C(N/N=C1/CCS(=O)(=O)c2ccc(F)cc21)c1ccccn1 | 3.33 |
| Cc1cc2nc(-c3ccc[nH]c3=O)n(Cc3ccccc3F)c2cc1C | 6.46 |
| CC(C)CC1NC(=O)N(CC(=O)NC2CCCc3ccccc32)C1=O (stereo not drawn) | 9.38 |
| CC1=C([N+](=O)[O-])C(c2ccccc2Cl)NC(=O)N1C (stereo not drawn) | 11.4 |
| COc1ccc(-n2c(C)cc(/C=C3\C(=O)NN(c4ccccc4)C3=O)c2C)cc1 | 14.6 |
| CN1CCc2cc3c(cc2[C@H]1[C@@H]1OC(=O)c2c1ccc1c2OCO1)OCO3 | 1.34 |
| COc1ccc(C(C(=O)NC2CCCC2)N(CCCO)C(=O)c2snc(C(N)=O)c2N)cc1 (stereo not drawn) | 7.08 |
| O=C1NC(=O)C(=Cc2ccc(-c3ccc(F)cc3O)o2)C(=O)N1 | 13.1 |
| CC(=O)c1nnn(-c2ccc(Cl)cc2C#N)c1C | 5.43 |
| COc1ccccc1NS(=O)(=O)c1cc(C(=O)N2CCN(C/C=C/c3ccccc3)CC2)ccc1C | 1.27 |
| COc1ccc(S(=O)(=O)N2CCC(C(=O)NCc3ccccn3)CC2)cc1Cl | 0.395 |
| COC(=O)NC1CCS(=O)(=O)C1 (stereo not drawn) | -6.41 |

| SMILES | hERG current change (%, negative = inhibition) at 1uM [%] |
| --- | --- |
| COCCSc1nnc(NS(=O)(=O)c2ccc(F)cc2)s1 | 10.5 |
| CCOc1ccc(-n2c(SCC(=O)Nc3ccc4c(c3)OCCO4)nc3c(c2=O)SCC3)cc1 | -0.0178 |
| COc1ccc(C(CNC(=O)c2cccc(S(=O)(=O)NCc3ccccc3)c2)N2CCOCC2)cc1 (stereo not drawn) | -13.5 |
| Cc1ccc(NC(=O)c2cc(=O)c3ccccc3o2)cc1S(=O)(=O)N1CCCCC1 | 14.1 |
| CCOC(=O)N1CCN(CC(O)COc2ccc(C(C)C)c(C)c2)CC1.Cl (stereo not drawn) | 4.88 |
| CCOC(=O)C1CCN(C(=O)C2CCCN(S(=O)(=O)c3ccc(OC)c(Cl)c3)C2)CC1 (stereo not drawn) | -29.2 |
| CC(=O)OC(/C(O)=C(\C#N)c1nc2ccccc2[nH]1)c1ccccc1 (stereo not drawn) | 7.37 |
| COCCN(CCOC)Cc1c(O)ccc2c3c(c(=O)oc12)CCC3 | -4.98 |
| S=c1[nH]nc(-c2ccccn2)n1/N=C/c1ccco1 | 10.7 |
| O=S(=O)(c1ccc(SCc2ccc(Cl)cc2)nc1)N1CCCC1 | 16.9 |
| O=C(NCc1cccnc1)c1ccc(-c2cc(Cl)ccc2Cl)o1 | -14 |
| Brc1ccc(OCc2nnc(SCC3CCCCC3)o2)cc1 | 14.9 |
| CCC(CC)NCc1c[nH]c2ccccc12.O=C(O)C(=O)O | 6.79 |
| COc1ccc(N2C(=O)c3ccccc3NC2c2ccccc2O)cc1 (stereo not drawn) | 11.6 |
| O=C(Nc1cccc(NC(=O)c2cccnc2Cl)c1)c1ccco1 | 9.36 |
| Cc1n[nH]c(C)c1S(=O)(=O)N(CC(=O)Nc1ccc2c(c1)OCCO2)c1ccc(C(C)C)cc1 | 7.92 |
| CC1(C)Cc2nc(N)c(C(=O)NCCO)cc2CO1 | 0.569 |
| CCCNS(=O)(=O)c1ccc(CCC(=O)N2CCN(c3ccc(F)cc3)CC2)cc1 | -9.85 |
| Cc1cccc(C)c1NC(=O)CN(C)C(=O)CC1OC(=O)c2ccccc21 (stereo not drawn) | 12.1 |
| COc1ccc(CCNC(=O)CCS(=O)(=O)c2ccc3nc(C)sc3c2)cc1OC | -5.49 |
| O=c1c2oc3ccccc3c2ncn1Cc1ccccc1F | -6.68 |

Source: article PMC4336329 (PLoS ONE, 2015)
